The values below come from patent US20170166621A1 (Novartis, published 2017).

What all share (experiment): cell-based or functional assay
The target in assay [1] is T1, beta-klotho (UniProt Q86Z14 1-1044, limits assumed).
T1 sequence (looked up): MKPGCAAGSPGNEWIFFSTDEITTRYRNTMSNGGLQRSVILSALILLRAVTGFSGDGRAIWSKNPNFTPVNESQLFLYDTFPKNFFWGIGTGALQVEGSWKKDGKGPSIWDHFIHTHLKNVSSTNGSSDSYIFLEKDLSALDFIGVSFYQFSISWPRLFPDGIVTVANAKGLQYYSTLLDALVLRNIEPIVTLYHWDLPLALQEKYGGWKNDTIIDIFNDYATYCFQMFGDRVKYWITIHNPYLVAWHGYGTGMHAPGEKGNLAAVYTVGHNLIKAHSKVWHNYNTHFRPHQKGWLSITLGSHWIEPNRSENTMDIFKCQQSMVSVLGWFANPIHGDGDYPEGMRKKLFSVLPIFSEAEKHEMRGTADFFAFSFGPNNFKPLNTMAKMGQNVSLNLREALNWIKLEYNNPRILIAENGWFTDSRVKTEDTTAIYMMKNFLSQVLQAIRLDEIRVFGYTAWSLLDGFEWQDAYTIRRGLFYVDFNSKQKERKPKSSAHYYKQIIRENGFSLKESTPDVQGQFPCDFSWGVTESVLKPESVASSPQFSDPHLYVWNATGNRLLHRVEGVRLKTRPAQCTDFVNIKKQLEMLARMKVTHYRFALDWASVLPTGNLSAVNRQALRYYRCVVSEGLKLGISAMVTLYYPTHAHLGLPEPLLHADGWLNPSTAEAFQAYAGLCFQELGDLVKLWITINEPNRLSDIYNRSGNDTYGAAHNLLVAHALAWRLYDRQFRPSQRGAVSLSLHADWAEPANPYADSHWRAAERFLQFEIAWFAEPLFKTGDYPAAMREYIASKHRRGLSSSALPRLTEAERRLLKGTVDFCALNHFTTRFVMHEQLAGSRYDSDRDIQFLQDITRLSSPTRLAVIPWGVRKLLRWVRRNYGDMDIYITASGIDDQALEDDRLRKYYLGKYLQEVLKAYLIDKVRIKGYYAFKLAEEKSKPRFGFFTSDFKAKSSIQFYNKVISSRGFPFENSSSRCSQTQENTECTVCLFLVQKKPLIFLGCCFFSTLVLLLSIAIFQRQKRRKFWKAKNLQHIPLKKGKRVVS

For assay [2], the target named is GLP-1 receptor (UniProt P43220 24-463, limits assumed).
For assay [3], the target named is T2, GLP-1R of INS1E rat insulinoma cells (rat, UniProt P32301 22-463).
T2 sequence (looked up): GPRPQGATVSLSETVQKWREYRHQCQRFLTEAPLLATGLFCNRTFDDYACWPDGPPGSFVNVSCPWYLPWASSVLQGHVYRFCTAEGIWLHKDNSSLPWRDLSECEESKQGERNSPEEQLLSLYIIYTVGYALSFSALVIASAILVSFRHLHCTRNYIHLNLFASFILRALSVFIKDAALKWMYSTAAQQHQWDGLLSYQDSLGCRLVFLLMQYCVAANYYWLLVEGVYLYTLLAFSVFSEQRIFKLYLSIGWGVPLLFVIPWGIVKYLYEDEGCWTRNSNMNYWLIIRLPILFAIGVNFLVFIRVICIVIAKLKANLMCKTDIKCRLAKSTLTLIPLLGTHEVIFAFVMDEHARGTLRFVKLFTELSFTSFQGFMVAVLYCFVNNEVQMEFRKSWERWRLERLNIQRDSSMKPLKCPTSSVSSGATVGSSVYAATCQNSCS

B1: GLP-1(7-35; A8S)-Fc-(GGGGS)3-FGF21(33-209; Q55C-R105K-G148C-K150R-P158S-S195A-P199G-G202A) (Fc fusion)
chain: HSEGTFTSDVSSYLEGQAAKEFIAWLVK[skipping human IgG1 Fc with changes]GGGGSGGGGSGGGGSDSSPLLQFGGQVRQRYLYTDDACQTEAHLEIREDGTVGGAADQSPESLLQLKALKPGVIQILGVKTSRFLCQKPDGALYGSLHFDPEACSFRELLLEDGYNVYQSEAHGLPLHLPCNRSPHRDPASRGPARFLPLPGLPPALPEPPGILAPQPPDVGSSDPLAMVGGSQARSPSYAS
As to B1, in assay [1], the “% γ-max vs. WT FGF21 (pERK, HEK293-KLB)” value came to 89%; the “Potency (Fold over WT FGF21) (pERK, HEK293-KLB)” value (shortened to “Potency (Fold over WT FGF21)”) amounted to 0.37 fold; the “βklotho pERK EC50 (nM)” value amounted to 1.24 nM. Further, the “GLP-1R EC50” value in assay [2] was found to be 5.9 nM.

B2: GLP-1(7-35; A8S)-S(GGGGS)3A-Fc-(GGGGS)3-FGF21(33-209; Q55C-R105K-G148C-K150R-P158S-S195A-P199G-G202A) (Fc fusion)
chain: HSEGTFTSDVSSYLEGQAAKEFIAWLVKGGSGGGGSGGGGSGGGGSA[skipping human IgG1 Fc with changes]GGGGSGGGGSGGGGSDSSPLLQFGGQVRQRYLYTDDACQTEAHLEIREDGTVGGAADQSPESLLQLKALKPGVIQILGVKTSRFLCQKPDGALYGSLHFDPEACSFRELLLEDGYNVYQSEAHGLPLHLPCNRSPHRDPASRGPARFLPLPGLPPALPEPPGILAPQPPDVGSSDPLAMVGGSQARSPSYAS
Take B2: in assay [1], the “% γ-max vs. WT FGF21 (pERK, HEK293-KLB)” value came out at 101%; the “Potency (Fold over WT FGF21)” value stood at 1.2 fold; the “βklotho pERK EC50 (nM)” value was 2.1 nM. The “GLP-1R EC50” value in assay [2] came to 0.024 nM.

B3: GLP-1(7-35; A8S)-S(GGGGS)3A-Fc-(GGGGS)3-FGF21(33-209; Q55C-R105K-G148C-P158S-K150R-S195A-G202A-A208D) (Fc fusion)
chain: HSEGTFTSDVSSYLEGQAAKEFIAWLVKGGSGGGGSGGGGSGGGGSA[skipping human IgG1 Fc with changes]GGGGSGGGGSGGGGSDSSPLLQFGGQVRQRYLYTDDACQTEAHLEIREDGTVGGAADQSPESLLQLKALKPGVIQILGVKTSRFLCQKPDGALYGSLHFDPEACSFRELLLEDGYNVYQSEAHGLPLHLPCNRSPHRDPASRGPARFLPLPGLPPALPEPPGILAPQPPDVGSSDPLAMVGPSQARSPSYDS
Take B3: in assay [1], the “% γ-max vs. WT FGF21 (pERK, HEK293-KLB)” value came to 76%; the “Potency (Fold over WT FGF21)” value came out at 7.6 fold; the “βklotho pERK EC50 (nM)” value stood at 13 nM. Besides, the “GLP-1R EC50” value in assay [2] was found to be 0.041 nM.

B4: GLP-1(7-35; A8S)-S(GGGGS)3A-Fc-(GGGGS)3-FGF21(33-209; Q55C-R105K-G148C-K150R-P158S-S195A-G202A-A208E) (Fc fusion)
chain: HSEGTFTSDVSSYLEGQAAKEFIAWLVKGGSGGGGSGGGGSGGGGSA[skipping human IgG1 Fc with changes]GGGGSGGGGSGGGGSDSSPLLQFGGQVRQRYLYTDDACQTEAHLEIREDGTVGGAADQSPESLLQLKALKPGVIQILGVKTSRFLCQKPDGALYGSLHFDPEACSFRELLLEDGYNVYQSEAHGLPLHLPCNRSPHRDPASRGPARFLPLPGLPPALPEPPGILAPQPPDVGSSDPLAMVGPSQARSPSYES
Turning to B4, in assay [1], the “% γ-max vs. WT FGF21 (pERK, HEK293-KLB)” value stood at 97%; the “Potency (Fold over WT FGF21)” value worked out at 5.8 fold; the “βklotho pERK EC50 (nM)” value came to 9.8 nM. Moreover, in assay [2], the “GLP-1R EC50” value came out at 0.042 nM.

B5: GLP-1(7-35; A8S)-(GGGGS)3-Fc-GS-FGF21(33-209; Q55C-A109T-G148C-K150R-P158S-S195A-P199G-G202A) (Fc fusion)
chain: HSEGTFTSDVSSYLEGQAAKEFIAWLVKGGGGGSGGGGSGGGGS[skipping human IgG1 Fc with changes]GSDSSPLLQFGGQVRQRYLYTDDACQTEAHLEIREDGTVGGAADQSPESLLQLKALKPGVIQILGVKTSRFLCQRPDGTLYGSLHFDPEACSFRELLLEDGYNVYQSEAHGLPLHLPCNRSPHRDPASRGPARFLPLPGLPPALPEPPGILAPQPPDVGSSDPLAMVGGSQARSPSYAS
For the molecule B5, in assay [1], the “% γ-max vs. WT FGF21 (pERK, HEK293-KLB)” value came to 50%; the “Potency (Fold over WT FGF21)” value was found to be 0.21 fold; the “βklotho pERK EC50 (nM)” value was 0.55 nM. Besides, in assay [2], the “GLP-1R EC50” value came to 0.023 nM. The “GSIS EC50 (nM) (avg of 2)” value in assay [3] amounted to 4.6 nM.

B6: GLP-1(7-35; A8S)-(GGGGS)3-Fc-GS-FGF21(33-209; Q55C-R105K-G148C-K150R-P158S-S195A-P199G-G202A) (Fc fusion)
chain: HSEGTFTSDVSSYLEGQAAKEFIAWLVKGGGGGSGGGGSGGGGS[skipping human IgG1 Fc with changes]GSDSSPLLQFGGQVRQRYLYTDDACQTEAHLEIREDGTVGGAADQSPESLLQLKALKPGVIQILGVKTSRFLCQKPDGALYGSLHFDPEACSFRELLLEDGYNVYQSEAHGLPLHLPCNRSPHRDPASRGPARFLPLPGLPPALPEPPGILAPQPPDVGSSDPLAMVGGSQARSPSYAS
As for B6, in assay [1], the “% γ-max vs. WT FGF21 (pERK, HEK293-KLB)” value is 56%; the “Potency (Fold over WT FGF21)” value stood at 0.32 fold; the “βklotho pERK EC50 (nM)” value worked out at 0.85 nM. Besides, the “GLP-1R EC50” value in assay [2] was 0.025 nM. Besides, the “GSIS EC50 (nM) (avg of 2)” value in assay [3] amounted to 6.8 nM.

B7: GLP-1(7-35; A8S)-(GGGGS)-Fc-(GGGGS)3-FGF21(33-209; Q55C-R105K-G148C-K150R-P158S-S195A-P199G-G202A) (Fc fusion)
chain: HSEGTFTSDVSSYLEGQAAKEFIAWLVKGGGGGS[skipping human IgG1 Fc with changes]GGGGSGGGGSGGGGSDSSPLLQFGGQVRQRYLYTDDACQTEAHLEIREDGTVGGAADQSPESLLQLKALKPGVIQILGVKTSRFLCQKPDGALYGSLHFDPEACSFRELLLEDGYNVYQSEAHGLPLHLPCNRSPHRDPASRGPARFLPLPGLPPALPEPPGILAPQPPDVGSSDPLAMVGGSQARSPSYAS
On to B7, for which, in assay [1], the “% γ-max vs. WT FGF21 (pERK, HEK293-KLB)” value stood at 70%; the “Potency (Fold over WT FGF21)” value worked out at 0.21 fold; the “βklotho pERK EC50 (nM)” value was determined as 1.01 nM. Besides, the “GLP-1R EC50” value in assay [2] was determined as 0.252 nM. In addition, the “GSIS EC50 (nM) (avg of 2)” value in assay [3] was found to be 128 nM.

B8: GLP-1(7-35; A8S)-Fc-GS-FGF21(33-209; Q55C-A109T-G148C-K150R-P158S-S195A-P199G-G202A) (Fc fusion)
chain: HSEGTFTSDVSSYLEGQAAKEFIAWLVK[skipping human IgG1 Fc with changes]GSDSSPLLQFGGQVRQRYLYTDDACQTEAHLEIREDGTVGGAADQSPESLLQLKALKPGVIQILGVKTSRFLCQRPDGTLYGSLHFDPEACSFRELLLEDGYNVYQSEAHGLPLHLPCNRSPHRDPASRGPARFLPLPGLPPALPEPPGILAPQPPDVGSSDPLAMVGGSQARSPSYAS
Turning to B8, in assay [1], the “% γ-max vs. WT FGF21 (pERK, HEK293-KLB)” value was 61%; the “Potency (Fold over WT FGF21)” value was 0.37 fold; the “βklotho pERK EC50 (nM)” value was determined as 1 nM. Also, the “GLP-1R EC50” value in assay [2] is 18.4 nM.

B9: GLP-1(7-35; A8S)-Fc-GS-FGF21(33-209; Q55C-R105K-G148C-K150R-P158S-S195A-P199G-G202A) (Fc fusion)
chain: HSEGTFTSDVSSYLEGQAAKEFIAWLVK[skipping human IgG1 Fc with changes]GSDSSPLLQFGGQVRQRYLYTDDACQTEAHLEIREDGTVGGAADQSPESLLQLKALKPGVIQILGVKTSRFLCQKPDGALYGSLHFDPEACSFRELLLEDGYNVYQSEAHGLPLHLPCNRSPHRDPASRGPARFLPLPGLPPALPEPPGILAPQPPDVGSSDPLAMVGGSQARSPSYAS
Take B9: in assay [1], the “% γ-max vs. WT FGF21 (pERK, HEK293-KLB)” value turned out to be 51%; the “Potency (Fold over WT FGF21)” value was found to be 0.34 fold; the “βklotho pERK EC50 (nM)” value was 0.92 nM. Besides, in assay [2], the “GLP-1R EC50” value is 8.99 nM.

B10: GLP-1(7-35; A8S)-(GGGGS)3-Fc-(GGGGS)3-FGF21(33-209; Q55C-R105K-G148C-K150R-P158S-S195A-P199G-G202A) (Fc fusion)
chain: HSEGTFTSDVSSYLEGQAAKEFIAWLVKGGGGGSGGGGSGGGGS[skipping human IgG1 Fc with changes]GGGGSGGGGSGGGGSDSSPLLQFGGQVRQRYLYTDDACQTEAHLEIREDGTVGGAADQSPESLLQLKALKPGVIQILGVKTSRFLCQKPDGALYGSLHFDPEACSFRELLLEDGYNVYQSEAHGLPLHLPCNRSPHRDPASRGPARFLPLPGLPPALPEPPGILAPQPPDVGSSDPLAMVGGSQARSPSYAS
In the case of B10, in assay [1], the “% γ-max vs. WT FGF21 (pERK, HEK293-KLB)” value was determined as 67%; the “Potency (Fold over WT FGF21)” value stood at 0.37 fold; the “βklotho pERK EC50 (nM)” value was 1.78 nM. Besides, in assay [2], the “GLP-1R EC50” value was found to be 0.025 nM. In assay [3], the “GSIS EC50 (nM) (avg of 2)” value amounted to 33 nM.
